Data reported in the supplement of paper PMC11741623.
The list shows a part of the results. Interaction screen of human proteins with wild-type SARS-CoV-2 proteins by split-DHFR complementation in yeast, 1 µg/mL methotrexate. Value = fitness of the pair (three or more lineages) minus that of the viral protein without a human partner, on a scale set by negative (0) and fused positive (1) controls, mean of up to three cultures; higher = more likely to interact. Active = false discovery rate below 0.05 (one-sided t-test) in at least one culture. Nearly all pairs are not hits, and differences among them are mostly noise (correlation between cultures about 0.3); most hits were seen in one culture only. Human sequences are the Swiss-Prot entries looked up by gene name; the clone may be another isoform. NSP2 values were corrected by the authors for a growth advantage. Listed are human proteins with a hit and a random twelfth of the others.

B1: IL2RB, P14784 (protein)
chain: MAAPALSWRLPLLILLLPLATSWASAAVNGTSQFTCFYNSRANISCVWSQDGALQDTSCQVHAWPDRRRWNQTCELLPVSQASWACNLILGAPDSQKLTTVDIVTLRVLCREGVRWRVMAIQDFKPFENLRLMAPISLQVVHVETHRCNISWEISQASHYFERHLEFEARTLSPGHTWEEAPLLTLKQKQEWICLETLTPDTQYEFQVRVKPLQGEFTTWSPWSQPLAFRTKPAALGKDTIPWLGHLLVGLSGAFGFIILVYLLINCRNTGPWLKKVLKCNTPDPSKFFSQLSSEHGGDVQKWLSSPFPSSSFSPGGLAPEISPLEVLERDKVTQLLLQQDKVPEPASLSSNHSLTSCFTNQGYFFFHLPDALEIEACQVYFTYDPYSEEDPDEGVAGAPTGSSPQPLQPLSGEDDAYCTFPSRDDLLLFSPSLLGGPSPPSTAPGGSGAGEERMPPSLQERVPRDWDPQPLGPPTPGVPDLVDFQPPPELVLREAGEEVPDAGPREGVSFPWSRPPGQGEFRALNARLPLNTDAYLSLQELQGQDPTHLV
B2: GYG2, O15488 (protein)
chain: MSETEFHHGAQAGLELLRSSNSPTSASQSAGMTVTDQAFVTLATNDIYCQGALVLGQSLRRHRLTRKLVVLITPQVSSLLRVILSKVFDEVIEVNLIDSADYIHLAFLKRPELGLTLTKLHCWTLTHYSKCVFLDADTLVLSNVDELFDRGEFSAAPDPGWPDCFNSGVFVFQPSLHTHKLLLQHAMEHGSFDGADQGLLNSFFRNWSTTDIHKHLPFIYNLSSNTMYTYSPAFKQFGSSAKVVHFLGSMKPWNYKYNPQSGSVLEQGSASSSQHQAAFLHLWWTVYQNNVLPLYKSVQAGEARASPGHTLCHSDVGGPCADSASGVGEPCENSTPSAGVPCANSPLGSNQPAQGLPEPTQIVDETLSLPEGRRSEDMIACPETETPAVITCDPLSQPSPQPADFTETETILQPANKVESVSSEETFEPSQELPAEALRDPSLQDALEVDLAVSVSQISIEEKVKELSPEEERRKWEEGRIDYMGKDAFARIQEKLDRFLQ
B3: ABCF2, Q9UG63 (protein)
chain: MPSDLAKKKAAKKKEAAKARQRPRKGHEENGDVVTEPQVAEKNEANGRETTEVDLLTKELEDFEMKKAAARAVTGVLASHPNSTDVHIINLSLTFHGQELLSDTKLELNSGRRYGLIGLNGIGKSMLLSAIGKREVPIPEHIDIYHLTREMPPSDKTPLHCVMEVDTERAMLEKEAERLAHEDAECEKLMELYERLEELDADKAEMRASRILHGLGFTPAMQRKKLKDFSGGWRMRVALARALFIRPFMLLLDEPTNHLDLDACVWLEEELKTFKRILVLVSHSQDFLNGVCTNIIHMHNKKLKYYTGNYDQYVKTRLELEENQMKRFHWEQDQIAHMKNYIARFGHGSAKLARQAQSKEKTLQKMMASGLTERVVSDKTLSFYFPPCGKIPPPVIMVQNVSFKYTKDGPCIYNNLEFGIDLDTRVALVGPNGAGKSTLLKLLTGELLPTDGMIRKHSHVKIGRYHQHLQEQLDLDLSPLEYMMKCYPEIKEKEEMRKIIGRYGLTGKQQVSPIRNLSDGQKCRVCLAWLAWQNPHMLFLDEPTNHLDIETIDALADAINEFEGGMMLVSHDFRLIQQVAQEIWVCEKQTITKWPGDILAYKEHLKSKLVDEEPQLTKRTHNV
B4: ACADS, P16219 (protein)
chain: MAAALLARASGPARRALCPRAWRQLHTIYQSVELPETHQMLLQTCRDFAEKELFPIAAQVDKEHLFPAAQVKKMGGLGLLAMDVPEELGGAGLDYLAYAIAMEEISRGCASTGVIMSVNNSLYLGPILKFGSKEQKQAWVTPFTSGDKIGCFALSEPGNGSDAGAASTTARAEGDSWVLNGTKAWITNAWEASAAVVFASTDRALQNKGISAFLVPMPTPGLTLGKKEDKLGIRGSSTANLIFEDCRIPKDSILGEPGMGFKIAMQTLDMGRIGIASQALGIAQTALDCAVNYAENRMAFGAPLTKLQVIQFKLADMALALESARLLTWRAAMLKDNKKPFIKEAAMAKLAASEAATAISHQAIQILGGMGYVTEMPAERHYRDARITEIYEGTSEIQRLVIAGHLLRSYRS

What follows are binders tested against SARS-CoV-2 M (assay: yeast fitness gain over the viral ORF with no human partner (scaled fitness); higher = more likely to interact).
Method: (§1)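 Split mouse DHFR complementation in pooled diploid yeast: human ORFeome clones carry one fragment and viral ORFs the other; barcoded lineages compete in 1 µg/mL methotrexate and fitness is read by barcode sequencing in up to three cultures.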
For B1, the yeast fitness gain was inactive: -0.00968. B2 was tested, and the yeast fitness gain was inactive: -0.00785. In the case of B3, the yeast fitness gain is reported as inactive: 0.13. In the case of B4, the yeast fitness gain is reported as inactive: 0.0204.

Each binder was assayed against SARS-CoV-2 NSP1 in the same assay as above.
Method: as §1
With B1 the yeast fitness gain was inactive: -0.00504. For B3, the yeast fitness gain was inactive: 0.114. For B4, the yeast fitness gain was inactive: -0.171.

The binders below were run against SARS-CoV-2 NSP10 in the same assay as above.
Method: as §1
B1 was tested, and the yeast fitness gain was inactive: -0.0268. For B2, the yeast fitness gain was inactive: -0.209. For B3, the yeast fitness gain was inactive: 0.0374. With B4 the yeast fitness gain was inactive: 0.0232.

These binders were tested against SARS-CoV-2 NSP12 in the same assay as above.
Method: as §1
For B1, the yeast fitness gain was inactive: -0.0761. For B2, the yeast fitness gain was inactive: 0.0315. B3 was tested, and the yeast fitness gain was inactive: -0.0634. For B4, the yeast fitness gain was inactive: 0.0144.

What follows are binders tested against SARS-CoV-2 NSP13 in the same assay as above.
Method: as §1
B1 was tested, and the yeast fitness gain was inactive: -0.195. In the case of B2, the yeast fitness gain is reported as inactive: 0.0367. B3 was tested, and the yeast fitness gain was inactive: 0.0411. For B4, the yeast fitness gain was inactive: 0.028.

Each binder was assayed against SARS-CoV-2 NSP2 in the same assay as above.
Method: as §1
For B1, the yeast fitness gain was inactive: -0.0562. B2 was tested, and the yeast fitness gain was inactive: -0.0919. With B3 the yeast fitness gain was inactive: -0.115. In the case of B4, the yeast fitness gain is reported as inactive: -0.0843.

These binders were tested against SARS-CoV-2 NSP6 in the same assay as above.
Method: as §1
With B1 the yeast fitness gain was inactive: -0.12. For B2, the yeast fitness gain was inactive: -0.0235. In the case of B4, the yeast fitness gain is reported as inactive: 0.0607.

Each binder was assayed against SARS-CoV-2 NSP7 in the same assay as above.
Method: as §1
B1 was tested, and the yeast fitness gain was inactive: 0.0199. For B2, the yeast fitness gain was inactive: 0.0306. With B3 the yeast fitness gain was inactive: -0.0856. B4 was tested, and the yeast fitness gain was inactive: 0.0368.

The binders below were run against SARS-CoV-2 NSP9 in the same assay as above.
Method: as §1
B1 was tested, and the yeast fitness gain was inactive: 0.184. With B2 the yeast fitness gain was inactive: -0.068. With B3 the yeast fitness gain was inactive: 0.0655. For B4, the yeast fitness gain was inactive: 0.0309.

Each binder was assayed against SARS-CoV-2 ORF10 in the same assay as above.
Method: as §1
In the case of B1, the yeast fitness gain is reported as inactive: -0.0629. With B2 the yeast fitness gain was inactive: -0.0543. B3 was tested, and the yeast fitness gain was inactive: -0.0321. In the case of B4, the yeast fitness gain is reported as inactive: -0.0278.

These binders were tested against SARS-CoV-2 ORF3B in the same assay as above.
Method: as §1
For B1, the yeast fitness gain was inactive: -0.0112. In the case of B2, the yeast fitness gain is reported as inactive: 0.0156. B3 was tested, and the yeast fitness gain was inactive: 0.00593. With B4 the yeast fitness gain was inactive: 0.0243.

What follows are binders tested against SARS-CoV-2 ORF6 in the same assay as above.
Method: as §1
In the case of B1, the yeast fitness gain is reported as inactive: -0.0706. In the case of B2, the yeast fitness gain is reported as inactive: 0.0426. With B3 the yeast fitness gain was inactive: 0.0215. For B4, the yeast fitness gain was inactive: -0.0528.

These binders were tested against SARS-CoV-2 ORF7B in the same assay as above.
Method: as §1
In the case of B1, the yeast fitness gain is reported as inactive: -0.01. For B2, the yeast fitness gain was inactive: -0.11. In the case of B3, the yeast fitness gain is reported as inactive: -0.0011. For B4, the yeast fitness gain was inactive: -0.00702.

Each binder was assayed against SARS-CoV-2 ORF8 in the same assay as above.
Method: as §1
With B1 the yeast fitness gain was inactive: 0.0112. With B2 the yeast fitness gain was inactive: 0.0791. With B3 the yeast fitness gain was inactive: -0.134. B4 was tested, and the yeast fitness gain was inactive: 0.0288.

Each binder was assayed against SARS-CoV-2 ORF9B in the same assay as above.
Method: as §1
B1 was tested, and the yeast fitness gain was inactive: -0.0887. In the case of B2, the yeast fitness gain is reported as inactive: 0.0108. In the case of B3, the yeast fitness gain is reported as inactive: 0.0549. B4 was tested, and the yeast fitness gain was inactive: 0.0346.

What follows are binders tested against SARS-CoV-2 S in the same assay as above.
Method: as §1
B1 was tested, and the yeast fitness gain was inactive: 0.0363. For B2, the yeast fitness gain was inactive: -0.0704. With B3 the yeast fitness gain was inactive: -0.067. With B4 the yeast fitness gain was inactive: -0.0606.

These binders were tested against SARS-CoV-2 N in the same assay as above.
Method: as §1
B2 was tested, and the yeast fitness gain was inactive: 0.0287. With B4 the yeast fitness gain was inactive: 0.0838.

What follows are binders tested against SARS-CoV-2 NSP14 in the same assay as above.
Method: as §1
With B2 the yeast fitness gain was inactive: 0.0503. B4 was tested, and the yeast fitness gain was inactive: -0.359.

What follows are binders tested against SARS-CoV-2 NSP15 in the same assay as above.
Method: as §1
For B2, the yeast fitness gain was inactive: 0.00308. B3 was tested, and the yeast fitness gain was inactive: -0.0185. With B4 the yeast fitness gain was inactive: -0.0151.

The binders below were run against SARS-CoV-2 NSP4 in the same assay as above.
Method: as §1
In the case of B2, the yeast fitness gain is reported as inactive: 0.118.

What follows are binders tested against SARS-CoV-2 NSP5 in the same assay as above.
Method: as §1
With B2 the yeast fitness gain was inactive: -0.0995. With B4 the yeast fitness gain was inactive: -0.0282.

What follows are binders tested against SARS-CoV-2 ORF3A in the same assay as above.
Method: as §1
With B2 the yeast fitness gain was inactive: -0.0278. In the case of B3, the yeast fitness gain is reported as inactive: -0.0329.

What follows are binders tested against SARS-CoV-2 NSP16 in the same assay as above.
Method: as §1
B3 was tested, and the yeast fitness gain was inactive: -0.0249. With B4 the yeast fitness gain was inactive: -0.0533.

The binders below were run against SARS-CoV-2 ORF7A in the same assay as above.
Method: as §1
B3 was tested, and the yeast fitness gain was inactive: -0.0124. B4 was tested, and the yeast fitness gain was inactive: 0.00674.

What follows are binders tested against SARS-CoV-2 NSP8 in the same assay as above.
Method: as §1
With B4 the yeast fitness gain was inactive: -0.0275.

What follows are binders tested against SARS-CoV-2 ORF9Bwu (the 73-codon ORF) in the same assay as above.
Method: as §1
For B4, the yeast fitness gain was inactive: 0.086.
